Data: PMC7915527, “Development of a Liquid Chromatography/Mass Spectrometry-Based Inhibition Assay for the Screening of Steroid 5-α Reductase in Human and Fish Cell Lines” (Molecules, 2021)

Assays:
[1] = tested on: 5AR (SRD5A1 and SRD5A2) in SW-13 cells; conditions: for IC50: read-out: IC50 Value, testosterone at KM, cotreatment 3 h, 95% CI in parentheses
[2] = tested on: 5AR in non-vector HEK-293 cells; conditions: testosterone 0 to 50 µM, 95% CI in parentheses

C[C@]12CC[C@H]3[C@@H](CCC4=CC(=O)CC[C@@]43C)[C@@H]1CC[C@@H]2O [testosterone]
Vmax ([1]; DHT formation from testosterone 0 to 50 µM, 95% CI in parentheses): 29.35 (27.94–30.90) nmol L^−1 h^−1
Km ([1]; testosterone 0 to 50 µM, 95% CI in parentheses): 0.0194 µM
Km [2]: 0.00756 µM
Vmax [2]: 4.473 (4.29–4.66) nmol L^−1 h^−1

C[C@]12C=CC(=O)N[C@@H]1CC[C@@H]1[C@@H]2CC[C@]2(C)[C@@H](C(=O)Nc3cc(C(F)(F)F)ccc3C(F)(F)F)CC[C@@H]12 [Dutasteride, dutasteride]
IC50 [1]: 4.75 nM

CC(C)(C)NC(=O)[C@H]1CC[C@H]2[C@@H]3CC[C@H]4NC(=O)C=C[C@]4(C)[C@H]3CC[C@]12C [Finasteride, finasteride]
IC50 [1]: 214 nM
